Sequences with one replicate were seen in a single cluster, so their values are uncertain.
Test system: ATP
Test: switch fluorescence ratio, 500 uM ATP over buffer (Cy3 cluster intensity, sum of 5 cycles each) (fold (ratio)); higher = stronger signal-on switching upon ATP binding; sequences stand for … in TCGTCGGCAGCGTCAGATGTGTATAAGAGACAGTTTTTTTTTTTTTTTTTTTTTTTTT…TC
Conditions: aptamer strand: ATP DNA aptamer (quencher-CACCTGGGGGAGTATTGCGGAGGAAGG + anchor), 100 nM annealed; ATP concentration: 500 uM; one replicate
Outline: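 After annealing to 100 nM quencher-labelled ATP aptamer, Cy3-labelled switching-strand clusters on a modified Illumina MiSeq flow-cell were imaged in selection buffer. A second image followed after 15 min with 500 uM ATP at 22 °C, and five such buffer/ATP cycles were done, each separated by NaOH stripping and re-annealing. The fluorescence ratio, averaged per switch-domain sequence, is summed target-cycle over summed buffer-cycle Cy3 intensity per cluster, with clusters outside 100-1000 RFU excluded.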
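Further: ATP exposure 15 min at 22 °C before imaging.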

Sequence	switch fluorescence ratio
CTTAGAGTAC	0.992
AATTATAACA	1
TCATATGTGC	0.989
GAAATCTATC	1.03
TTAGGTGTGA	0.988
CGGTAGTTTG	0.96
ACTGACTCTG	1.11
CGCAACAGTA	1.08
ACGCCGGTTG	0.977
AGTCGCGATG	0.996
TCTCGGGCTC	2.63
TTTTACATTG	0.988
GGGTTATAAT	0.982
ATTTTTGCAG	0.978
CACGTACTGA	1.56
CGTTATTAGT	0.997
TTCCTGG	0.99
TGAGGTAGAC	1.04
TCAGGCCTTT	0.991
TTGGCTAA	0.937
TCCGTCCCGG	1.07
GAGCACTAAG	1.02
TTTTATTGAT	1.02

Sequence	switch fluorescence ratio
CGATGGCCGA	1.03
TTCTTACTC	1.15
TATTGTGCCG	0.972
CTTACGGTAC	1.76
TCGAGGGGG	1.05
TATATATGAG	0.975
TTAATGTCTG	0.952
CCAGGGGAGA	1
TGCACTCGGT	0.979
TGGGCCTCGG	0.968
GGCAGACGAG	1.02
CTTCGGTAAT	1.68
CATGAGTGTG	1
CCATATTACC	1.02
TAGCGCTAAA	1.22
CATAGTACAG	1.09
TCCGAATCCT	1.1
TTAACAGCAA	1.75
AAAAAGAAGG	1.02
TTCAACGTTT	0.958
GACAGCTTGC	0.992
ATTTGGCGCA	1.05
TATTCGACGA	1.05

Sequence	switch fluorescence ratio
GGGCGCCAGA	0.996
CTCAGTGCAC	0.976
TTATTCAAT	0.995
GCGTTAGTGT	0.944
TCGTCGTTCA	1
AGCCGAGAAC	1.08
TTTTATGTGC	0.994
AGTGCGCCAG	0.994
GACGACTCTG	0.959
CCTTCAGCG	1.41
TCTGTGCGGA	0.96
GATATTGGTC	1.05
GCATGAGCG	1
TTTGGTTCG	0.99
ACTACGCGGG	1.08
CAGGCTAAAA	1
AAGTCCAAAT	0.961
TTGTAGAGGT	1.02
GGCGCAGGG	1.2
AAGTTTACAC	1.01
CGTCGCGAAG	1.04
GTCGAAAGTT	1.01
AATGCGACGA	1.03

Sequence	switch fluorescence ratio
CTACAAATAA	1.03
GAGATCTTGT	0.964
ATTACAGTCT	1.02
TACGACGACG	1.03
CCTACGGGGG	1.01
AGTCTTTAGA	0.95
GGCAGTGGGC	1.01
CTAGATTCCC	1.05
CGGAAAACGA	0.989
GAGAGTCAAA	0.969
ATAGTAACGA	1.01
GGGACGATG	0.984
CACTGGCTAT	1
TTGATCTGAC	1.07
GATTGATATT	1.02
AGCCCCTCGA	0.985
TACTCCGGTA	3.2
ATCTCAGGTA	1.01
GCAGCGGGGT	0.981
CGCGAAATAA	1.02
CTAGACATTT	1.01
CTGTCAGCCA	1.09
GGACTAGTGT	0.978

Sequence	switch fluorescence ratio
TATTCTAAGT	1.01
CTGGCTGGAC	0.988
CACTGGTCG	1.05
AAAAACATCA	1.01
GGTAGTGGAA	0.988
TGTTTACTAT	1
CGAACCGCGG	0.977
TGACGCTTTT	1.06
CAAGTAGCGT	0.966
CACGGAGTGC	1.03
ATACTTCTTT	1.02
GCCTAGTCGT	1.04
TTACCGCTGT	1.12
GATCAAGGAA	0.95
CACGAGTGGT	1.02
GGGAAGGCTG	1
AGTAAACGAT	0.995
AGAATCGGGA	0.965
ATCGAATTAG	0.94
TCTCATTT	1.01
CGTAGGATGG	1.05
AGTGTGCTTC	0.967
AGTGGTTTTC	0.952

Sequence	switch fluorescence ratio
CGGGCTGCCC	1.03
GGTGGGCCTG	0.992
GATTTGATGC	1.05
ATTATTACCA	1.02
GGCAATAGCG	1.01
TGTATGTCTT	1.06
TTACACCGA	1.2
TTATATGTTT	0.986
GCTGATAGCC	0.979
TCTATGGGCG	1.08
TCGGTAC	1.11
GTTGGAGATG	1
CGATTGTGTC	0.926
GCCTTATGTG	1.01
AAGAGCTATA	1
ACGAATTGG	1
TGTGCGGAG	1.01
GCCTGAGAGG	0.993
AAAGCTACCT	1.29
GTTCATCACA	1.01
ACATAAAGAC	1.11
TTTTCGGCGC	1.61
CGTGTCAAAC	1.09

Sequence	switch fluorescence ratio
AAAGCGGGAA	0.998
CGGGATAACC	1.04
GGTGATTTG	0.998
GTGCAATCGT	1.17
ATTTAGTCAT	0.988
AAAGCGCTTG	1.03
GGAGTTTTGC	0.972
TCCTAGTAGT	1.02
ATGAACTGAT	1.04
GCAGCTGGGG	1.05
CCAACGAGTC	1.18
GACAGGGCGT	1.03
GGATGGGTG	1.01
GACTAGAGCA	1.14
AGACTGTTG	0.949
TTTTGTTACG	1.03
CTAACCACTC	1.07
CTTTCTAAA	0.962
CGAGTAGGCA	1.08
TGGAGAATGT	0.984
